Experimental data taken from patent US20240092890A1 (JUNTENDO EDUCATIONAL FOUNDATION, published 2024).

T1: Ins 5 type mutant CALR protein on UT-7/TPO CALR Ins 5 cells (UniProt P27797 18-417)
T1 sequence (looked up): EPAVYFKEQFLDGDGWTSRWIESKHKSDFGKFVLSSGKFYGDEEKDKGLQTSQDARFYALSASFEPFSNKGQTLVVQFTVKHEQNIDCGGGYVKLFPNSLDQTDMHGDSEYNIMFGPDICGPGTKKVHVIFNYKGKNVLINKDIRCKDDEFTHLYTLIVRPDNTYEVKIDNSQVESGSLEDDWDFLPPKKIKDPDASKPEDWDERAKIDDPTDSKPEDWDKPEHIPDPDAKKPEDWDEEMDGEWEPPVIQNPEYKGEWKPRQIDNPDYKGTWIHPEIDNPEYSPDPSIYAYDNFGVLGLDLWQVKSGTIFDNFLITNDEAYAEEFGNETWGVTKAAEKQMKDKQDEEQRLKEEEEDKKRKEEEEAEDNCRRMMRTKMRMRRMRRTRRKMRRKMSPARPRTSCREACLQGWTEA


Experiments:
[1] = biological target: T1, Ins 5 type mutant CALR protein on …; experiment: cell-based or functional assay
[2] = biological target: T1, Ins 5 type mutant CALR protein on …; experiment: cell-based or functional assay; remark: listed apart in the source

Row | Binder | EC50 of cytotoxic activity (calcein release, T-LAK effector cells) [1] [pM] | EC50 of cytotoxic activity (pM) [2] [pM]
1 | Antibody 4 (bispecific antibody) QVQLVQSGGGVVQPGRSLRLSCKASGYTFTRYTMHWVRQAPGKGLEWIGYINPSRGYTNYNQKVKDRFTISRDNSKNTAFLQMDSLRPEDTGVYFCARYYDDHYSLDYWGQGTPVTVSSGGGGSGGGGSGGGGSDIQMTQSPSSLSASVGDRVTITCSASSSVSYMNWYQQTPGKAPKRWIYDTSKLASGVPSRFSGSGSGTDYTFTISSLQPEDIATYYCQQWSSNPFTFGQGTKLQITRGGGGSDIQMTQSPASLSASLGETVSIECLASEDIYSYLAWYQQKPGKSPQLLIFAANRLQDGVPSRFSGSGSGTQFSLKISGMQPEDEGDYFCLQGSKFPYTFGPGTKLELNGGGGSGGGGSGGGGSQVQLQQSGAELVKPGSSVKISCKASGYTFTRNFIHWIKQQPGNGLEWIGWIFPGDGDTEYNQKFNGKATLTADKSSSTAYMQLSSLTSEDSAVYFCARGNYNYEYFDYWGQGVMVTVSS[… human IgG1 Fc with changes …] | 23 | 
2 | Antibody 105 (bispecific antibody) QVQLVQSGGGVVQPGRSLRLSCKASGYTFTRYTMHWVRQAPGKGLEWIGYINPSRGYTNYNQKVKDRFTISRDNSKNTAFLQMDSLRPEDTGVYFCARYYDDHYSLDYWGQGTPVTVSSGGGGSGGGGSGGGGSDIQMTQSPSSLSASVGDRVTITCSASSSVSYMNWYQQTPGKAPKRWIYDTSKLASGVPSRFSGSGSGTDYTFTISSLQPEDIATYYCQQWSSNPFTFGQGTKLQITRGGGGSDIQMTQSPSSLSASVGDRVTITCLASEDIYSYLAWYQQKPGKAPKLLIFAANRLQDGVPSRFSGSGSGTDFTLTISSLQPEDFATYYCLQGSKFPYTFGPGTKVDIKGGGGSGGGGSGGGGSQVQLVQSGAEVKKPGSSVKVSCKASGYTFTRNFIHWIRQAPGQGLEWIGWIFPGDADTEYNQKFSGRATITADKSTSTAYMELSSLRSEDTAVYYCARGNYNYEYFDYWGQGTMVTVSS[… human IgG1 Fc with changes …] |  | 26
3 | Antibody 6 (bispecific antibody) DIQMTQSPSSLSASVGDRVTITCSASSSVSYMNWYQQTPGKAPKRWIYDTSKLASGVPSRFSGSGSGTDYTFTISSLQPEDIATYYCQQWSSNPFTFGQGTKLQITRGGGGSQVQLQQSGAELVKPGSSVKISCKASGYTFTRNFIHWIKQQPGNGLEWIGWIFPGDGDTEYNQKFNGKATLTADKSSSTAYMQLSSLTSEDSAVYFCARGNYNYEYFDYWGQGVMVTVSSGGGGSGGGGSGGGGSGGGGSDIQMTQSPASLSASLGETVSIECLASEDIYSYLAWYQQKPGKSPQLLIFAANRLQDGVPSRFSGSGSGTQFSLKISGMQPEDEGDYFCLQGSKFPYTFGPGTKLELNGGGGSQVQLVQSGGGVVQPGRSLRLSCKASGYTFTRYTMHWVRQAPGKGLEWIGYINPSRGYTNYNQKVKDRFTISRDNSKNTAFLQMDSLRPEDTGVYFCARYYDDHYSLDYWGQGTPVTVSS[… human IgG1 Fc with changes …] | 85 | 
4 | Antibody 3 (bispecific antibody) QVQLVQSGGGVVQPGRSLRLSCKASGYTFTRYTMHWVRQAPGKGLEWIGYINPSRGYTNYNQKVKDRFTISRDNSKNTAFLQMDSLRPEDTGVYFCARYYDDHYSLDYWGQGTPVTVSSGGGGSGGGGSGGGGSDIQMTQSPSSLSASVGDRVTITCSASSSVSYMNWYQQTPGKAPKRWIYDTSKLASGVPSRFSGSGSGTDYTFTISSLQPEDIATYYCQQWSSNPFTFGQGTKLQITRGGGGSQVQLQQSGAELVKPGSSVKISCKASGYTFTRNFIHWIKQQPGNGLEWIGWIFPGDGDTEYNQKFNGKATLTADKSSSTAYMQLSSLTSEDSAVYFCARGNYNYEYFDYWGQGVMVTVSSGGGGSGGGGSGGGGSDIQMTQSPASLSASLGETVSIECLASEDIYSYLAWYQQKPGKSPQLLIFAANRLQDGVPSRFSGSGSGTQFSLKISGMQPEDEGDYFCLQGSKFPYTFGPGTKLELN[… human IgG1 Fc with changes …] | 19 | 
5 | Antibody 1 (bispecific antibody) QVQLQQSGAELVKPGSSVKISCKASGYTFTRNFIHWIKQQPGNGLEWIGWIFPGDGDTEYNQKFNGKATLTADKSSSTAYMQLSSLTSEDSAVYFCARGNYNYEYFDYWGQGVMVTVSSGGGGSGGGGSGGGGSDIQMTQSPASLSASLGETVSIECLASEDIYSYLAWYQQKPGKSPQLLIFAANRLQDGVPSRFSGSGSGTQFSLKISGMQPEDEGDYFCLQGSKFPYTFGPGTKLELNGGGGSQVQLVQSGGGVVQPGRSLRLSCKASGYTFTRYTMHWVRQAPGKGLEWIGYINPSRGYTNYNQKVKDRFTISRDNSKNTAFLQMDSLRPEDTGVYFCARYYDDHYSLDYWGQGTPVTVSSGGGGSGGGGSGGGGSDIQMTQSPSSLSASVGDRVTITCSASSSVSYMNWYQQTPGKAPKRWIYDTSKLASGVPSRFSGSGSGTDYTFTISSLQPEDIATYYCQQWSSNPFTFGQGTKLQITR[… human IgG1 Fc with changes …] | 20 | 
